Experimental data reported in patent US20220119459A1 (OXFORD UNIVERSITY INNOVATION, published 2022).

T1: peptide containing SpyTag002 (KGVPTIVMVDAYKRYK)
T1 construct: also called SpyTag002 peptide
T1 peptide: KGVPTIVMVDAYKRYK


Columns and labels:
SpyTag002-MBP = target: T2, SpyTag002-MBP; test: second-order rate of isopeptide bond formation, SDS-PAGE densitometry; succinate-phosphate-glycine buffer pH 7.0, 25 °C; mean ± 1 s.d., n = 3
T2 construct: not shown: made by QuikChange from pET28a SpyTag-MBP

SpyTag-MBP = target: T3, SpyTag-MBP; test: as above
T3 construct: also called WT SpyTag-MBP; not shown: pET28a SpyTag-MBP, Addgene plasmid ID 35050; limits, linker and purification tag not stat

[1] = target: T1, peptide containing SpyTag002 …; test: electrospray ionization mass spectrometry; 95 µM SpyCatcher002 with 220 µM peptide, 3 h, 25 °C, PBS pH 7.5

Binder	Rate constant (SpyTag002-MBP) [M⁻¹ s⁻¹]	Rate constant (SpyTag-MBP) [M⁻¹ s⁻¹]	binding result [1]
SpyCatcher (designed binder, also called WT SpyCatcher; wt SpyCatcher) not shown	10300	1680	
SpyCatcher002 (designed binder, also called SC002; D5T SpyCatcher002) not shown	20200	5470	binds
